Paper PMC4336329 (PLoS ONE, 2015)
Out of some 310,000 compounds screened, about 14,000 (4.5%) showed an effect of 50% or more. The effect is printed as a negative number. The list shows a part of the results.

biological target: human ether-à-go-go-related gene (hERG) potassium channel (human, UniProt Q12809); assay: primary screen, population patch clamp on CHO cells stably expressing hERG
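Note: peak tail current of the secondary pulse compared with the same well before compound.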

Sequence of human ether-à-go-go-related gene (hERG) potassium channel (Q12809 whole entry, looked up): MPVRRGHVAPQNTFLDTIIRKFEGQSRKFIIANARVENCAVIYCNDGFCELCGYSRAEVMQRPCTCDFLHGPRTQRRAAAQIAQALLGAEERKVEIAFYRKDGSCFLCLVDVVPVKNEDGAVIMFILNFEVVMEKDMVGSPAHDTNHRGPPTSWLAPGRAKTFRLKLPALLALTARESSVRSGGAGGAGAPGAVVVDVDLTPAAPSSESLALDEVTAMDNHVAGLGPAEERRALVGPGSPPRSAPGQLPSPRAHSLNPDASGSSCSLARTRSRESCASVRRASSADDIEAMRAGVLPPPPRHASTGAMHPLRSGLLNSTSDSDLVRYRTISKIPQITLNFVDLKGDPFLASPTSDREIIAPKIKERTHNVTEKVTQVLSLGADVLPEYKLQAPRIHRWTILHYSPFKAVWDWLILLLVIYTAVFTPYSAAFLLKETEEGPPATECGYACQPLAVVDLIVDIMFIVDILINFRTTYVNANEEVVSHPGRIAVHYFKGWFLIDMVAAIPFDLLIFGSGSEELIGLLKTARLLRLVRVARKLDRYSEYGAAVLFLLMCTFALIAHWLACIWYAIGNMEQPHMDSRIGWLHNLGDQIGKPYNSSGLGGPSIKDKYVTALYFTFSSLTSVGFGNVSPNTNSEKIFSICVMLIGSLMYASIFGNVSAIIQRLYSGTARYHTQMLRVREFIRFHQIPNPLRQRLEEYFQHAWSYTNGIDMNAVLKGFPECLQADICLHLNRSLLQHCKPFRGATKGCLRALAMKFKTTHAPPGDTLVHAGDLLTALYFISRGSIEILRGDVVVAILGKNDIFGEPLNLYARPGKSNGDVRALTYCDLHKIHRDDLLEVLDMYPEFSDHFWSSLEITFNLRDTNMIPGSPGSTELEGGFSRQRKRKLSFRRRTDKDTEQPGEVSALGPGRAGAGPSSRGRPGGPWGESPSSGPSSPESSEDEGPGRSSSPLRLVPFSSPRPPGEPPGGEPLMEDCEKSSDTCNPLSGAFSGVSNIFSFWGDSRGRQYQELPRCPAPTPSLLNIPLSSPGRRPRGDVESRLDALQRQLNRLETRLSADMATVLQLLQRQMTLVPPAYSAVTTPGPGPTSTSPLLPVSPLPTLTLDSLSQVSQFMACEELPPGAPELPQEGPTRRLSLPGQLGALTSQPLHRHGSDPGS

| Compound | hERG current change (%, negative = inhibition) at 10uM [%] |
| --- | --- |
| CC(C)c1ccc(N2C(=O)CC(Sc3nc4ccccc4o3)C2=O)cc1 (stereo not drawn) | -8.9 |
| O=C(CSc1nnc(-c2cccs2)o1)NCC1CN(Cc2ccccc2)CCO1 (stereo not drawn) | -12.6 |
| CC1(c2ccccc2)NC(=O)N(CC(=O)NNC(=O)c2ccccc2)C1=O (stereo not drawn) | 21.3 |
| CC(=O)[C@@]1(O)CC[C@H]2[C@@H]3CCC4=CC(=O)CC[C@]4(C)[C@H]3CC[C@@]21C | 1.7 |
| CC(C)CCN1CCC(Cc2ccccc2)(NC(=O)c2ccccc2)C1=O (stereo not drawn) | 12.4 |
| COc1ccc(S(=O)(=O)NC(C)C)cc1-n1cnnn1 | 9.29 |
| CCCCN(C(=O)C(C)Oc1ccc(Br)cc1)c1c(N)n(CC(C)C)c(=O)[nH]c1=O (stereo not drawn) | -26.2 |
| C(/CCc1ccccc1)=N\n1cnnc1 | 5.25 |
| O=c1c2ccccc2nc(/C=C/c2ccccn2)n1-c1ccccc1 | 10.9 |
| COc1ccc(C2CC(=O)C3=C(C2)NC(C)=C(C(=O)Nc2ccccc2C)C3c2coc3ccc(C)cc3c2=O)cc1OC (stereo not drawn) | -8.61 |
| COc1ccccc1CC(=O)N1CCCC(CCC(=O)NCc2ccccc2F)C1 (stereo not drawn) | 2.97 |
| CC1CC(C)CN(C(=O)COC(=O)c2cc([N+](=O)[O-])ccc2N2CCOCC2)C1 (stereo not drawn) | -54.7 |
| Cc1csc(SC(C)C(=O)NC2CCCCC2C)n1 (stereo not drawn) | 5.57 |
| CCOc1ccccc1NC(=O)CN1CCC(C(=O)c2ccc(OC)cc2)CC1 | -65.9 |
| O=C(NCc1ccccc1)C(c1ccc(O)cc1)N(C(=O)c1cnccn1)c1ccccc1 (stereo not drawn) | 1.33 |
| Cc1c(C(=O)Nc2ccccc2F)sc2ncn(CC(=O)N3CCOCC3)c(=O)c12 | -4.4 |
| CCCCNC(=S)N1CCC(Cc2ccccc2)CC1 | -24.6 |
| COC(=O)C(Cc1ccc(N(CCCl)CCCl)cc1)N=Cc1ccccc1O (stereo not drawn) | 19.4 |
| O=C(c1ccc(Cl)nc1)N1CCc2ccccc2C1 | -8.23 |
| Cc1ccc(O)c(NC(=O)c2cc(-c3ccccc3)on2)c1 | 13.6 |
| Cc1ccc(SC(C)C(=O)Nc2c(C)n(C)n(-c3ccccc3)c2=O)cc1 (stereo not drawn) | -4.85 |
| O=C(NNC(=O)c1ccccc1Cl)c1cccnc1 | 17.1 |
| O=C(NC1CCCCC1)c1ccc(S(=O)(=O)NCc2ccco2)cc1 | 11.4 |

| Compound | hERG current change (%, negative = inhibition) at 10uM [%] |
| --- | --- |
| [O-]c1n[n+](-c2ccc(Cl)cc2)cc2ccccc12 | 8.28 |
| CCNC(=O)CC1C(=O)N(c2ccc(C)cc2)C(=O)N1Cc1ccccn1 (stereo not drawn) | -32.5 |
| O=C(CN1C(=O)c2ccccc2C1=O)Nc1ccc2c(c1)OCO2 | 4.32 |
| O=C(OCC(=O)N1CCOCC1)c1cc2ccccc2oc1=O | 0.399 |
| COc1cc(Cl)c(C)cc1NCC(=O)Nc1cccc(S(=O)(=O)N2CCCC2)c1 | -7.46 |
| CCn1c(SCC(=O)NCc2ccc3c(c2)OCO3)nc2c(c1=O)SCC2 | -6.01 |
| Cn1c(=O)cc(OCC(=O)N2CCC3(CC2)OCCO3)c2ccccc21 | 9.09 |
| CC(=O)N(c1c(C)n(C)n(-c2ccccc2)c1=O)C1(C(=O)NC2CCCCC2)CCCCC1 | -10.9 |
| CC(C)(C)NC(=O)CSc1nnnn1C(C)(C)C | 5.27 |
| O=C(Nc1cccc(S(=O)(=O)NC2=NCCCCC2)c1)c1cc(-c2ccc(Cl)cc2)nc2ccccc12 | 6.08 |
| Cc1snc(SCC(=O)c2ccc(F)cc2)c1C#N | -0.35 |
| CC(=O)Nc1c(-c2ccccc2)c2cc(Br)ccc2[nH]c1=O | -3.38 |
| CCNC(=S)N(Cc1cc2c(C)ccc(C)c2[nH]c1=O)C1CCCC1 | 32.8 |
| CC12COC3(C(=O)Nc4ccccc4F)CC1CCC32C (stereo not drawn) | 26.8 |
| O=c1[nH][nH]cc1C=Nc1ccccc1Cl | 22.2 |
| COc1cccc(/C=N/NC(=O)CCc2n[nH]c(=O)[nH]c2=O)c1O | 3.7 |
| C=C(C)C1CC=C(CN2CC(C)OC(C)C2)CC1 (stereo not drawn) | 10.8 |
| COC(=O)Cn1c(CN2CCN(C(=O)c3ccco3)CC2)nc2c1c(=O)n(C)c(=O)n2C | 0.463 |
| CNC(=O)Cn1ncc2c(C)n(Cc3ccc(C)cc3)c(C)c2c1=O | -9.35 |
| COc1ccc(C(=O)NCc2ccc(N3CCN(C)CC3)cc2)cc1 | 5.1 |
| Cc1ccc(C)c(NC(=O)CS(=O)(=O)c2cn(C)c3ccccc23)c1 | -20.8 |
| O=C(Cc1ccccc1)Nc1ccc(NC(=O)c2cccc(Cl)c2)cc1 | 2.08 |
| Cc1ccc(C)c(CSCc2nc3ccccc3[nH]2)c1 | 15.4 |

| Compound | hERG current change (%, negative = inhibition) at 10uM [%] |
| --- | --- |
| COc1ccccc1COC(=O)N/C=C/c1ccco1 | -4.7 |
| CCC(=O)N(c1nnc(SCC(=O)Nc2ccc(N3CCOCC3)cc2)s1)C1CC1 | 13.8 |
| Cc1ccc(C(=O)Nc2ccc(N3CCCC3)cc2)c(C)c1 | 17.6 |
| CC(=O)NC1=C(Nc2ccc(N(C)C)cc2)C(=O)c2ccccc2C1=O | -9.79 |
| COc1ccc(CNC(=O)CCC(=O)Nc2nnc(CC(C)C)s2)cc1 | -1.69 |
| O=C(CC1CCC1)Nc1cccc2c([N+](=O)[O-])cccc12 | 10.1 |
| S=c1[nH]nc(-c2ccc(Cl)cc2)n1Cc1ccccc1 | 5.73 |
| O=C(O)CCCNS(=O)(=O)c1ccccc1 | 15 |
| COC(=O)c1ccc(C)c(NC(=O)CCCN2C(=O)NC(C)(C)C2=O)c1 | 5.43 |
| CC(C)CN(CCCNC(=O)CN1N=C(c2ccc(Cl)cc2)CCC1=O)CC(C)C | -21.8 |
| Cc1ccc(CN2CCN(Cc3cccc(OCCO)c3)CC2CCO)o1 (stereo not drawn) | -12.1 |
| COc1ccc(-c2cc(=O)c3cc(O)ccc3o2)cc1 | 16.7 |
| CCc1ccc2nc(N3CCC(C(=O)N4CCC5(CC4)OCCO5)CC3)sc2c1 | -42.5 |
| CCOc1ccc(-n2cc(-c3ccccc3)c3c(=S)nc[nH]c32)cc1 | 24.8 |
| C=CCN(Cc1nc(-c2ccccc2)no1)C(=O)c1ccc2c(c1)OCO2 | -31.5 |
| [O-][n+]1onc2c1CCC(=N/O)/C2=N\Nc1ccccc1 | 8.28 |
| COC(=O)c1ccc(C2C(C(=O)c3ccco3)=C(O)C(=O)N2CC2CCCO2)cc1 (stereo not drawn) | -29.8 |
| Cc1ccccc1-c1ccc(Nc2ccc(N3CCOCC3)cc2)nn1 | -76 |
| COc1ccc(CC(=O)NNC(=S)NCC2CC2)cc1OC | 12.1 |
| Cc1cccc(NC(=O)Cn2nnc3sc4c(c3c2=O)CC(C)(C)OC4)c1 | 3.62 |
| COC(=O)c1cc(NC(=O)c2ccco2)ccc1N1CCOCC1 | 5.55 |
| CCn1nccc1C(=O)Nc1ccc(C)c(C)c1 | 8.67 |
| COc1ccccc1NC(=O)CCC(=O)OCc1ccc(Cl)cc1 | -0.804 |

| Compound | hERG current change (%, negative = inhibition) at 10uM [%] |
| --- | --- |
| O=C(CSC1=NS(=O)(=O)c2cc(F)ccc2N1)NCc1ccccc1 | -1.82 |
| CCN(CC)CCCn1c(=S)[nH]c2ccccc2c1=O | -25.7 |
| CCN1C(=O)/C(=C2/C=CC=CN2C)OC1=S | -11.4 |
| O=C1C[C@@H]2c3c(cccc3CN1Cc1ccc(F)cc1)C[C@@H](O)[C@H]2O | 4.23 |
| COCCN(C(=O)c1ccc(COc2ccccc2)o1)c1c(N)n(CC(C)C)c(=O)[nH]c1=O | -2.22 |
| CCc1ccc(CNc2ccc3c(c2)ncn3CC)cc1 | -19.7 |
| Cc1ccc(NC(=O)/C=C/c2cccs2)c([N+](=O)[O-])c1 | 0.518 |
| NS(=O)(=O)c1ccc(CCNC(=O)C(=O)NCC2OCCN2S(=O)(=O)c2cccs2)cc1 (stereo not drawn) | 14.9 |
| CCN(CC)S(=O)(=O)c1ccc(OC)c(NC(=O)c2cc(C)on2)c1 | 15.3 |
| CCOc1ccc(NC(=O)c2cc3ccccc3cc2O)cc1 | 19.8 |
| O=c1cc(N2CCc3ccccc3C2)[nH]c(=O)n1-c1ccc(Cl)cc1 | 3.07 |
| Cc1cc(OCC(=O)Nc2ccc(CN3CCOCC3)cc2)ccc1Cl | -51.8 |
| NC(=S)Nc1cccc2cnccc12 | 1.4 |
| COc1ccc(CCNC(=O)COC(=O)c2cccs2)cc1OC | 11.8 |
| Cc1ccn2c(Nc3ccccc3C)c(-c3ccccn3)nc2c1 | -9.6 |
| COc1ccc(NC(=O)COC(=O)CNS(=O)(=O)/C=C/c2ccccc2)cc1OC | 9.14 |
| Cc1c(Cl)cccc1S(=O)(=O)N1CCC(C(=O)NNC(=O)C2CC2)CC1 | 1.6 |
| COc1ccc(N2CC(NC(=O)NCCC(C)C)CC2=O)cc1 (stereo not drawn) | -19.2 |
| COc1ccc(Cl)cc1NC(=S)NCCN1CCOCC1 | -1.72 |
| CCn1c(=O)c2sccc2n(CC(=O)NC2CCCCC2)c1=O | 0.443 |
| CCOCCCNC(=S)N1CCC(C(=O)c2ccc(C)cc2)CC1 | -8.15 |
